According to the supplement of paper PMC9446081:
The whole screen tested about 39,000 compounds, of which about 220 (0.56%) showed activity. This is one part of the list.

What follows are molecules tested on Escherichia coli K-12 BW25113 (assay: relative growth (OD600 normalised to plate interquartile mean) (fraction); higher = less growth inhibition, active = 0.2 or less). Conditions: 50 µM; LB; incubation time: overnight (16-24 h).
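Also: static incubation at 37 °C against the wild-type strain, values averaged over two biological replicates.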

Row | SMILES | relative growth
1 | CO[C@H](CN(C)C(=O)c1ccc2c(c1)OCO2)[C@H](C)CN([C@@H](C)CO)S(=O)(=O)c1ccc(C)cc1 | inactive: 0.99
2 | C[C@H](CO)N1C[C@H](C)[C@H](CN(C)Cc2ccc(C(F)(F)F)cc2)Oc2ccc(NC(=O)NC3CCCCC3)cc2CC1=O | inactive: 1.01
3 | C[C@@H]1CN([C@H](C)CO)C(=O)c2cc(NC(=O)Nc3cccc4ccccc34)ccc2O[C@@H](C)CCCCO[C@@H]1CN(C)Cc1ccc(C(F)(F)F)cc1 | inactive: 1.03
4 | Cc1noc(C)c1S(=O)(=O)Nc1ccc2c(c1)C(=O)N([C@H](C)CO)C[C@@H](C)[C@H](CN(C)C(=O)Nc1ccc3c(c1)OCO3)O2 | inactive: 1
5 | C[C@@H]1CN([C@H](C)CO)C(=O)c2cc(NC(=O)Cc3ccccc3)ccc2O[C@@H](C)CCCCO[C@@H]1CN(C)C(=O)C1CCCCC1 | inactive: 1.02
6 | COc1ccc([Si](C)(C)[C@@H]2[C@@H](CC(=O)N(CCO)Cc3ccccc3)O[C@]3(C(=O)N(Cc4ccc(N5CCC5=O)cc4)c4ccccc43)[C@H]2C)cc1 | inactive: 1.01
7 | CS(=O)(=O)N1C[C@H]2C[C@@H](F)[C@H](O)[C@@H]2C1 | inactive: 0.993
8 | Cc1ccc(S(=O)(=O)Nc2ccc3c(c2)C(=O)N([C@@H](C)CO)C[C@@H](C)[C@@H](CN(C)S(=O)(=O)c2ccc(C)cc2)OCCCC[C@H](C)O3)cc1 | inactive: 0.979
9 | C[C@@H]1CN([C@H](C)CO)C(=O)Cc2cc(NC(=O)Cn3cnnn3)ccc2O[C@@H]1CN(C)Cc1ccc(C(=O)Nc2ccccc2N)cc1 | inactive: 1.03
10 | Cc1ccc(S(=O)(=O)Nc2cccc3c2O[C@@H](CN(C)Cc2ccc(Cl)c(Cl)c2)[C@@H](C)CN([C@@H](C)CO)C3=O)cc1 | inactive: 1.05
11 | CC1=C(C(=O)NCCCN2CCN(c3ccc(F)cc3)CC2)C2(CCN(Cc3ccccc3)CC2)OC1=O | inactive: 0.567
12 | C[C@H]1CN([C@@H](C)CO)C(=O)c2cc(C#Cc3ccccc3F)cnc2O[C@H]1CN(C)C(=O)Cc1cccnc1 | inactive: 0.997
13 | C[C@@H]1CN([C@H](C)CO)C(=O)Cc2cc(NC(=O)CCCCCC(=O)Nc3ccccc3N)ccc2O[C@H]1CN(C)Cc1ccc(Cl)c(Cl)c1 | inactive: 0.93
14 | C[C@H](CO)N1C[C@H](C)[C@@H](CN(C)C(=O)Nc2ccc(F)cc2)OCCCC[C@H](C)Oc2ccc(NC(=O)Nc3ccc4c(c3)OCO4)cc2C1=O | inactive: 1.02
15 | O=C(C[C@H]1CC[C@@H]2[C@H](COC[C@@H](O)CN2S(=O)(=O)c2cccc(F)c2)O1)NCc1ccc2c(c1)OCO2 | inactive: 1
16 | C[C@H]1CN([C@@H](C)CO)C(=O)Cc2cc(NS(C)(=O)=O)ccc2O[C@H]1CN(C)S(=O)(=O)c1cccs1 | inactive: 1.01
17 | C[C@H](CO)N1C[C@H](C)[C@H](CN(C)C(=O)Nc2ccc(F)cc2)OCCCC[C@H](C)Oc2ccc(NC(=O)Nc3ccc(C(F)(F)F)cc3)cc2C1=O | inactive: 1.03
18 | C[C@H]1CN([C@@H](C)CO)C(=O)CCCn2cc(nn2)CO[C@H]1CN(C)C(=O)Nc1ccccc1C(F)(F)F | inactive: 1
19 | Cc1noc(C)c1S(=O)(=O)Nc1ccc2c(c1)CC(=O)N([C@H](C)CO)C[C@H](C)[C@H](CN(C)S(=O)(=O)c1cccs1)O2 | inactive: 0.997
20 | NC(CC(=O)O)C(=O)O (stereo not given) | inactive: 0.986

Row | SMILES | relative growth
21 | COc1ccc(C#Cc2cnc3c(c2)C(=O)N([C@H](C)CO)C[C@H](C)[C@H](CN(C)C(=O)CC2CC2)O3)cc1 | inactive: 0.999
22 | COc1ccc(S(=O)(=O)N(C)C[C@H]2Oc3ccc(NC(=O)C4CC4)cc3C(=O)N([C@@H](C)CO)C[C@H]2C)cc1 | inactive: 1.01
23 | CC[C@H](C)[C@H](NC(=O)[C@H](Cc1ccc(O)cc1)NC(=O)[C@@H](NC(=O)[C@@H](CCCNC(=N)N)NC(=O)[C@@H](N)CC(=O)O)C(C)C)C(=O)N[C@@H](Cc1cnc[nH]1)C(=O)N1CCC[C@@H]1C(=O)N[C@H](Cc1ccccc1)C(=O)O | inactive: 0.998
24 | COc1ccc(S(=O)(=O)Nc2cccc3c2O[C@H](CN(C)C(=O)NC(C)C)[C@@H](C)CN([C@@H](C)CO)C3=O)cc1 | inactive: 0.996
25 | C[C@@H]1CN([C@H](C)CO)C(=O)c2cc(NC(=O)Nc3ccc(C(F)(F)F)cc3)ccc2O[C@H]1CN(C)C(=O)Nc1ccc(C(F)(F)F)cc1 | inactive: 1.02
26 | C[C@H]1CN([C@@H](C)CO)C(=O)Cc2cc(NC(=O)c3ccncc3)ccc2O[C@H]1CN(C)S(=O)(=O)c1cccs1 | inactive: 0.961
27 | N#Cc1cc2[nH]c(=O)c(=O)[nH]c2cc1[N+](=O)[O-] | inactive: 1.01
28 | COc1ccc(S(=O)(=O)Nc2cccc3c2O[C@H](CN(C)S(=O)(=O)c2cccs2)[C@@H](C)CN([C@H](C)CO)C3=O)cc1 | inactive: 0.984
29 | CO[C@@H]1[C@H](O)[C@@H](CO)O[C@H]1n1cc(C)c(N)nc1=O | inactive: 1
30 | C[C@@H]1CN([C@@H](C)CO)S(=O)(=O)c2ccc(-c3ccc(C(=O)N(C)C)cc3)cc2O[C@@H]1CN(C)C(=O)C1CCOCC1 | inactive: 1.01
31 | Cc1noc(C)c1NC(=O)Nc1ccc2c(c1)C(=O)N([C@H](C)CO)C[C@@H](C)[C@H](CN(C)S(=O)(=O)c1ccc(F)cc1)OCCCC[C@@H](C)O2 | inactive: 1.02
32 | O=C(O)[C@@H]1CCCN1 | inactive: 1.02
33 | Cc1cccc(S(=O)(=O)N2C[C@@H](O)COC[C@H]3O[C@H](CC(=O)NCCCN4CCOCC4)CC[C@@H]32)c1 | inactive: 1
34 | COc1ccc2c3c(n(c2c1)C)[C@H](CO)N(CC1CCCC1)C[C@]13CCN(CC1)C(=O)Nc1ccccc1 | inactive: 1.02
35 | CC(=O)OCC(=O)C1(OC(C)=O)C(C)CC2C3CC(F)C4=CC(=O)C=CC4(C)C3(F)C(O)CC21C (stereo not given) | inactive: 0.97
36 | COCC#Cc1cnc2c(c1)C(=O)N([C@@H](C)CO)C[C@@H](C)[C@@H](CN(C)C(=O)Nc1ccc(OC)cc1)O2 | inactive: 1.04
37 | C[C@@H]1CN([C@@H](C)CO)S(=O)(=O)c2ccc(C#C[C@@H](C)O)cc2O[C@@H]1CN(C)C(=O)Cc1ccccn1 | inactive: 0.989
38 | C[C@H]1CN([C@@H](C)CO)C(=O)Cc2cc(NC(=O)Nc3ccc(F)cc3)ccc2O[C@H]1CN(C)Cc1ccc(C(F)(F)F)cc1 | inactive: 1.02
39 | C[C@H]1CCC2=C(CCC[C@@]2(C)C(=O)O)[C@@]1(C)CCc1ccoc1 | inactive: 0.951
40 | CCS(=O)(=O)NCC[C@H]1CC[C@@H](NS(=O)(=O)c2ccccc2C)[C@H](CO)O1 | inactive: 0.97

Row | SMILES | relative growth
41 | CNC(=O)C[C@@H]1CC[C@@H]2[C@H](COC[C@@H](O)CN2C(=O)c2ccccn2)O1 | inactive: 0.997
42 | C[C@H]1CN([C@@H](C)CO)C(=O)Cc2cc(NC(=O)C3CC3)ccc2O[C@H]1CN(C)C(=O)Nc1ccccc1 | inactive: 0.977
43 | C[C@@H]1CN([C@@H](C)CO)C(=O)c2ccccc2-c2ccccc2CO[C@H]1CN(C)Cc1ccccc1C(F)(F)F | inactive: 1.06
44 | C[C@H](CO)N1C[C@H](C)[C@@H](CN(C)Cc2ccncc2)Oc2c(NC(=O)c3cnccn3)cccc2C1=O | inactive: 0.981
45 | C[C@H]1CCCCO[C@H](CN(C)C(=O)CCC(F)(F)F)[C@@H](C)CN([C@@H](C)CO)C(=O)c2cc(NC(=O)Nc3ccccc3)ccc2O1 | inactive: 0.997
46 | CCOc1ccc(NC(C)=O)cc1 | inactive: 1.14
47 | CCCN(C)C[C@@H]1Oc2cc(C#Cc3ccc(OC)cc3)ccc2S(=O)(=O)N([C@H](C)CO)C[C@@H]1C | inactive: 1.02
48 | CO[C@H]1CN(C)C(=O)c2cc(NC(=O)CC(F)(F)F)ccc2OC[C@H](C)N(S(=O)(=O)c2cn(C)cn2)C[C@@H]1C | inactive: 0.985
49 | COc1ccc(S(=O)(=O)N(C)C[C@H]2Oc3ccc(NC(=O)c4ccncc4)cc3CC(=O)N([C@H](C)CO)C[C@@H]2C)cc1 | inactive: 1.02
50 | C[C@@H]1CN([C@H](C)CO)C(=O)c2cc(NC(=O)Cc3ccccc3)ccc2O[C@@H]1CN(C)Cc1ccc(C(F)(F)F)cc1 | inactive: 1.02
51 | C[C@@H]1CCCCO[C@@H](CN(C)C(=O)Nc2ccc3c(c2)OCO3)[C@H](C)CN([C@H](C)CO)C(=O)c2cc(NC(=O)c3ccncc3)ccc2O1 | inactive: 1
52 | CCCC#Cc1ccc2c(c1)O[C@@H](CN(C)S(=O)(=O)c1cccc(F)c1)[C@H](C)CN([C@@H](C)CO)S2(=O)=O | inactive: 0.92
53 | COc1ccc(C=CC(=O)c2ccc(O)cc2O)cc1 | inactive: 0.802
54 | CS(=O)(=O)N1C[C@@H]2OCC[C@@H]2[C@H](C(=O)NCc2cccnc2)C1 | inactive: 1
55 | Nc1ncn([C@@H]2C[C@H](O)[C@@H](CO)O2)c(=O)n1 | inactive: 0.907
56 | C[C@@H]1CN([C@H](C)CO)C(=O)c2cc(NS(=O)(=O)c3ccccc3)ccc2O[C@H]1CN(C)S(=O)(=O)c1ccc(F)cc1 | inactive: 1
57 | C[C@@H]1CN([C@@H](C)CO)C(=O)Cc2cc(NC(=O)Cc3cn(C)c4ccccc34)ccc2O[C@@H]1CN(C)C(=O)Nc1ccc(C(F)(F)F)cc1 | inactive: 1
58 | CC1(C)N=C(N)N=C(N)N1c1ccccc1 | inactive: 0.986
59 | Cc1noc(C)c1S(=O)(=O)N(C)C[C@H]1OCCCC[C@@H](C)Oc2ccc(NC(=O)Nc3ccc(C(F)(F)F)cc3)cc2C(=O)N([C@@H](C)CO)C[C@H]1C | inactive: 0.975
60 | C[C@H]1CN([C@@H](C)CO)C(=O)c2cc(NS(=O)(=O)c3cccs3)ccc2O[C@@H]1CN(C)S(C)(=O)=O | inactive: 0.981
